Experimental findings from the RNAGym collection of RNA variant scans (doi:10.7554/elife.90254) are described below.

B1: OR4K15 (parent)
chain: GUUAACGGUCAUAGGCCAUGGAAACUAGGAGCACCAUUUCGCUGCCAGUGAAGAAAUGAACAAAGAAAAUCUGGGCCAGGCAGGCAUCAAAAGAAAUAGUCUUGCGCUCAACCAGAAAGUCUGUAAUCAUUUUAAGGGUA

Read counts are not given, so values of variants with three or more changes are uncertain.

In this series the parent is B1. Nature of the series: self-cleavage, relative activity (ratio to wild type); higher = more cleavage; in vitro, sequencing; the parent is a self-cleaving ribozyme.
Regarding U19A G80A U122C, the self-cleavage turned out to be 0.22.
The result for U19A C35U A52G U57C reads 0.71; that for U19A U38C A47U A59G A94G, 1.31; that for A22G A23U A118G, 0.81.
As to U19C A60G U102C U124A, the self-cleavage stood at 0.75.
The result for A22G A36U A55G U72A A94G reads 0.09; that for A18U U38C U57A, 1.62; that for U19C A23G C61U U97C, 0.5.
Next, A22C U26A G31A A60G A111G: 0.01.
The result for G21A A82U A96G reads 0.38; that for U19C A22G A52G, 1.01; that for U19G U38C U72G, 0.55.
As for U19C G80A A82G, the self-cleavage stood at 0.15.
The result for G20A A47G A51U A86G U108C G115A reads 0.01.
Consider U19C A47U A62G U103C U133C, for which the self-cleavage is 0.27.
With U19G C45U A89G, the self-cleavage worked out at 1.1.
The result for A22G A27G U43A A59G A90G A118G reads 0.15; that for U19C G21A A22C U38C A82G, 0.61.
The result for A22G A24G A116U reads 0.48; that for G21A A51G G58A A59G, 0.9; that for U19C U43C U57A A62G A110G, 0.06.
The result for U19C A66G A89C reads 1.25; that for U19C A30G A89G A126G, 0.42; that for A18U C34U A89G, 1.99.
With U19C U39A A126G, the self-cleavage came to 1.4.
Next, U19A C25U A67G U131C A140G: 0.49.
Next, A18U U57C G104A: 0.01; U19C U87C A89G A125G: 0.23.
Next, U19G A23G U100C U133C: 1.09.
With U19C A59G G99U, the self-cleavage was determined as 0.37.
Next, A22G A27G U38C A89G A95G A118U: 1.02.
The result for A18U U49C A116C reads 0.06; that for A22G A36U A64G U130C, 0.84; that for U19C U49C A67G A86G U122A, 1.35.
Regarding U19A A69G A94G U132C, the self-cleavage came out at 1.9.
Next, U19C G75C A90G: 0; U19C A27G A111G U130C: 0.02; U19C A36U U39C A55U A63G U124C A126G: 0.24.
Next, U19C A89U U120C: 1.06.
The result for U19C A60G U122G reads 1.94; that for G21A A23G A89G A92G A111G U120A, 0.
Regarding A18U U43A U72C A95G A117G G123A A129U, the self-cleavage was 0.04.
The result for A18U U19C A24G G31A U122C reads 0.46.
For U19C A52G A140G, the self-cleavage is 1.02.
Consider U19C A62G A67U, for which the self-cleavage is 1.13.
Next, A22G A24G A51G: 1.28; U19C A126U U132A: 1.1.
Next, U19A U39C U87C A89G U100C: 1.43.
Consider A18U U38C A68G A82G A92G U100C, for which the self-cleavage came out at 1.79.
Consider U19C A66G A111G, for which the self-cleavage worked out at 0.06.
The result for A22G A24C A30G U70C A135U reads 0.88; that for U19A A23U U57C A114G, 0.21; that for U19C U38C C77U, 1.84.
Next, U19A A64G A116U: 0.43; U19C A86U A116U: 0.42; U19A U38C A62U: 1.87.
The result for U19C U87C U100C U122A reads 1.44; that for G20A A24U U37A, 0.72; that for U19C A54G A94C U102C, 2.88.
Turning to U19C A22G G50A A52G A62G A86G A91G, the self-cleavage is 0.17.
Next, U19A U43C A126G U132C: 0.63; A18U U37C A68G: 1.34; U19C A33G U124C: 0.74.
The result for U19C C35U G65U A92U U103C reads 0.18; that for A18U C32U A67G A110C, 0.15; that for U19A A36G A47G A92G, 0.73.
The result for U19C U72C G106C U108C reads 0.01.
On to U19C A86U U102C U122C, for which the self-cleavage was determined as 1.3.
The result for U19A C45U A52G U87C A110G reads 0.15; that for U19C A23U U72C G104A A129U, 0.02.
Next, A18U C25U G31A A78G C107A U122C: 0.02.
The result for U19C A30U A67G reads 0.88; that for A22G A27G A52C A63G A114G A117G, 0.78; that for A22C A23U A118U, 0.94.
Turning to A22G A23G A64G A86G A90G A126G, the self-cleavage was 0.3.
A18U G106U A110G: the self-cleavage was 0.01.
Turning to U19C U49C A59G A60G, the self-cleavage was determined as 1.1.
Next, U19A A55U A94G: 0.59; U19C U26C A56G U57C: 0.62.
Consider U19A U43C A56G, for which the self-cleavage came to 0.79.
Next, G21U A64G A96G U124C: 0.57; U19C A60G U72A A91G: 0.09.
Next, U19A C42A A96G U122C: 1.1; A22G A23G A30G U72A A111G: 0.1.
Next, G20A A54G U57A A60G: 0.35; U19C G48U U100C: 2.23.
On to U19C U37C A51G U127C G137C, for which the self-cleavage was found to be 0.56.
Turning to U19A A89G A94G, the self-cleavage is 0.66.
With U19C A82G A96G U120C, the self-cleavage was 0.21.
Consider G20A A64G A98G A111U A118G, for which the self-cleavage was 0.03.
The result for U19C A78G A114G A118U U130A reads 0.02; that for G20A A62G A90G A94U, 1.97.
On to U19C A33G G50A A69U, for which the self-cleavage was 1.04.
Next, G20A U100C U132C: 1.79; U19C U72C A98U: 0.17; U19C C32U A86G U130C U139C: 1.29.
Next, U19C U43A A140G: 1.55; U19A A69G A90G: 0.71; U19C U43A A62U U103G: 0.05.
Next, U19C A33G U97C: 0.39; G21A A89G A114G U127A: 0.27; U19A A22G U108C: 0.06.
Take U19C A60G C113U: the self-cleavage worked out at 0.07.
The result for A18U U132C A140G reads 0.87; that for U19C U108A A111G, 0.02; that for A18U G75C U100G U108C, 0.01.
The result for U19C A23G U57G U132A reads 0.92; that for U19G U43C U49A, 0.78; that for A22G A30G U37C U102C A134G, 1.85.
The result for U19G A52G C81A reads 0.69.
Regarding A22G A23U A33U A56G U70C A125G, the self-cleavage came to 0.85.
As for U19A U43C A67G, the self-cleavage turned out to be 1.47.
As for U19C A36U A92G U108C, the self-cleavage was 0.03.
The result for U19C A24G A59G A66G A94G U108C U139C reads 0.01; that for U19A U122C U127A, 0.81; that for U19A A52U A91G A135U, 0.91.
The result for A22G A30G U43C A54G A62G U70C reads 1.44; that for U19A A30G C45U A68C U103C, 0.82; that for A22C A78U A96G G106U, 0.01.
In the case of U19C U43A A51U, the self-cleavage was determined as 1.11.
The result for U19A A59U A67G A117C reads 0.37.
The result for U19G A33G A67G reads 1.55.
The result for A18U U57C A90G U132C reads 0.31.
In the case of U19A A67G U87A, the self-cleavage was determined as 1.73.
As for A18U U37C A59G A68U, the self-cleavage was 2.11.
Regarding U19G U43C A89G A92G U122C U127C U130C, the self-cleavage was found to be 1.27.
The result for U19C U38C U131C reads 0.63.
The result for U19C A63G A91G A135G reads 0.57.
For A22G A30G U87G A94G, the self-cleavage was determined as 0.68.
Next, A22G A47U A90C A129G: 0.54; U19C U57C A66G A110G A117G C121A: 0.13.
Next, U19C A54G U120C: 1.16; A22G A30G A55G U72C: 0.43.
Next, U19A A22G A33G A36U A96G: 1.59; A18U U108C U122C: 0.01; U19C A67U A94G: 1.59.
On to G20A A24G A36G U39C A95G, for which the self-cleavage stood at 0.49.
For G20A U72C A86U U127A, the self-cleavage came to 0.34.
Next, U19A C46U C85U: 1.09; U19C A54G U100A U127C: 0.32.
Take U19C U57C A111G: the self-cleavage turned out to be 0.03.
Next, U19A U108C A126G: 0; U19C A52G A89G U131A A135G: 0.64.
As to U19C A69G C81U, the self-cleavage came to 0.23.
Next, U19C A33G A94G: 0.92; U19A A94G A96G U122A: 2.12.
Next, A22G A47G A78G U102C: 0.24; U19C A89G U122C: 0.91; U19C A23U A55G A92G U102C: 1.64.
The result for U19C U37C A92G reads 1.14; that for G20C A64U U102C, 1.67.
With A18U G29A A54G U57C A114U A118G, the self-cleavage amounted to 0.02.
The result for A22G A24G U38A U70C U100C A114U reads 0.26; that for A22C A52G A116G, 1.21.
Next, U19C A56G U57C: 0.64; A22C A59G U120A: 1.26.
A22G A30G A33G A55G A82G: the self-cleavage turned out to be 0.25.
Regarding U19C A27G G106U, the self-cleavage is 0.03.
The result for G20A A82U U122C A134G reads 0; that for G20U C25A A96G A118G, 0.32.
Consider U19C U39C A90G A92G, for which the self-cleavage stood at 1.65.
Next, A22G A30G C35U A98G A140G: 1.38; U19C A23G U102C U124A: 0.77; U19G A33G A66G A90G U102C A117G: 2.15.
As for U19C U43C A51U A68G, the self-cleavage amounted to 1.01.
Next, U19A U57C A64G A68G: 1.42.
The result for G21U A56G A117G U139C reads 1.59.
